The results in this text go back to US20220073643A1 (NANJING GENSCRIPT BIOTECH, published 2022).

This assay addresses T1, human Claudin18.2 (human).
T1 construct: also called CLDN18.2
Description: FACS, Claudin18.2-HEK293 cells. How it is done:
The binding of chimeric antibodies to Claudin18.2 expressed on HEK293 cells was determine by FACS analysis. Briefly, HEK293 cells expressing human Claudin18.2 as prepared in the foregoing Example were harvested and incubated with anti-Claudin18.2 mAbs at 4° C. for 40 min, followed by fluorophore (iFluor 647)-labeled goat […] IgG (H+L) secondary antibodies at 4° C. for 0.5 hour. The samples were then analyzed by flow cytometry.
After initial screening of cell binding with transfected supernatants, the binding pattern of chimeric and up to 3 humanized antibodies on Claudin18.2 expressed on HEK293 cells were plotted with antibody in 3× serial dilutions, starting concentration of 45 μg/ml, following the protocol described in Example 3.

Changes are numbered by the printed parent chain.

B1: humanized 237D2A4-VH1.5 + VL1 (antibody, human IgG1, kappa)
heavy: QVQLQESGPGLVKPSETLSLTCTVSGFSLTSYGVSWVRQPPGKGLEWLGVIWGDGSTNYHSTLISRLTISKDTSKNQFSLKLSSVTAADTAVYYCAKAGRGNALDYWGQGTLVTVSS[human IgG1 constant region not printed]
light: DIVMTQSPDSLAVSLGERATINCKSSQSLLNSGNQKNYLTWYQQKPGQPPKLLIYWASTRESGVPDRFSGSGSGTDFTLTISSLQAEDVAVYYCQNDYSFPLTFGGGTKLEIKRTVAAPSVFIFPPSDEQLKSGTASVVCLLNNFYPREAKVQWKVDNALQSGNSQESVTEQDSKDSTYSLSSTLTLSKADYEKHKVYACEVTHQGLSSPVTKSFNRGEC
notes: humanized, human IgG1/kappa constant regions
B1 came in with an EC50 of 0.249 µg/mL and a Span of 15400.

B2: humanized 237D2A4-VH1.5 + VL1.1 (antibody, human IgG1, kappa)
heavy: B1 heavy
light: B1 light with I21M, N22S
notes: as for B1
Regarding B2, the EC50 worked out at 0.218 µg/mL and the Span came to 15500.
